From ChEMBL document CHEMBL4888484, “Replenishing the malaria drug discovery pipeline: Screening and hit evaluation of the MMV Hit Generation Library 1 (HGL1) against asexual blood stage Plasmodium falciparum ,using a nano luciferase reporter read-out” (2022)
About 540 (0.36%) of roughly 150,000 compounds showed an effect of 50% or more. The list shows a part of the results.

The molecules below were run on Plasmodium falciparum (assay: Primary screen in NF54 nanoGlo assay, in single point, at 2uM, 72h; a lower Z score goes with more inhibition). Conditions: timepoint 72 hour.
Type: functional, Erythrocyte

Compound	% Inhibition [%]	Z score
CCOCCCC(=O)N1CCc2nc[nH]c2[C@@]12CCN(C(=O)OC(C)(C)C)C2	-15	2.19
COc1ccc(C(=O)NCCc2csc(-n3nc(C)cc3C)n2)cc1OC	0	0.02
COc1ccc(-c2noc(NC3CCCC3CNC(=O)OC(C)(C)C)n2)cc1OC (stereo not drawn)	-2	0.41
COc1ccc(NC(=O)Nc2cc(C)cc(-n3nc4ccccc4n3)c2O)cc1	-4	0.48
CN(Cc1ncc[nH]1)C(=O)NC[C@H]1CC[C@@H]2C[C@H]1C2(C)C	-4	0.5
NC(=O)[C@@H]1CCCCN1CCn1nc2ccccn2c1=O	-4	0.57
CCNC(=O)c1ccc(COc2ccc3c(c2)[C@H](c2ccc(F)cc2)N(C(=O)CC(C)C)CC3)o1	-7	0.66
Cc1cnc(CN2CCCC[C@@H]2CCO)cn1	-5	0.84
CN1CCN(C(=O)CNC(=O)c2cccc(Cl)c2)CC1	34	-4.35
CC1(C)C[C@@H]1c1n[nH]c(=O)n1C1CCCC1	-3	0.38
CC[C@H](NC(=O)N1CCc2c(nnn2-c2ccccc2)C1)C1CCOCC1	9	-1.19
Cc1cc(NC(=O)CN2CCC(C)CC2c2ccco2)n(C)n1 (stereo not drawn)	-5	0.99
O=C(Nc1ccccn1)[C@H]1CC(=O)N(c2n[nH]c3cc(Br)ccc23)C1	-9	1.21
O=C(Nc1ccccc1)Nc1ccc2nc(NC(=O)c3ccccc3)sc2c1	-7	1.23
CC(C)(C)c1cc(C(=O)NS(=O)(=O)CC2CCOCC2)[nH]n1	12	-1.47
O=C1NC2(CCCC2)C(=O)N1CCN1CCc2ccccc2C1	3	-0.27
Cn1c(=O)c2ccccc2n1CC1(C)COC1	-1	0.21
COCCCNCCOCCOc1ccc(Cl)cc1Br	-15	2.05
COc1ccc(-c2ccc([C@H]3OCCN[C@@H]3C)cc2)c(C#N)c1	1	-0.2
CC(=O)N1CCN(CC2=NS(=O)(=O)c3ccccc3N2)CC1	12	-2.05
CC1(C)OC(=O)c2c1ccnc2N1CCO[C@@H](Cn2cccn2)C1	-2	0.29
Cc1nc(C(=O)NC[C@@]23CCC[C@@H]2OCC3)c(-c2ccccc2)o1	0	-0.01
C=CCNC(=O)[C@H](C)N(C)Cc1ccc(C)o1	-13	1.19
O=C(NCc1ccc(N2CCOCC2)cc1)c1cccs1	-24	2.23
O=C(CCC(=O)Nc1cccnc1)NCc1ccc2c(c1)OCO2	32	-0.57
Cc1c(-c2ccc(F)cc2)[nH]c2ccc(CNC(=O)c3nnc4n3CCCC4)cc12	4	-0.45
CCCn1ncc(C(=O)N2C[C@H]3CC=CC[C@H]3C2)c1C	-10	1.85

Compound	% Inhibition [%]	Z score
Cc1cc(CC(=O)N[C@H](C)CC2CCCCC2)no1	-10	1.06
CC(=O)N1CCC[C@@](NCCn2cccn2)(c2nnnn2CCC(C)C)C1	-16	2.11
CNc1cc(C(=O)N2CCC3(CC2)CC(=O)N(CC=C(C)C)C3)ccn1	-18	1.73
CC(C)(CNC(=O)c1c(F)cc(Br)cc1F)C(N)=O	-3	0.33
COc1nccc(C(=O)N2CCN(C3CC3)c3cc(F)ccc32)n1	-6	1.07
CS(=O)(=O)CC1(CNC(=O)c2ccc(Br)cc2)CC1	36	-0.97
Cc1ncc(C(=O)N(c2ccc(Br)cn2)C(C)C)c(C)n1	-7	1.45
CN(C)c1n[nH]c(NCc2c(Cl)cnn2C)n1	-12	1.24
O=c1[nH]c(N2CCC(O)CC2)nc2c1Cc1ccccc1OC2	-1	0.17
CCn1nccc1C(=O)N1CCC(c2noc(COCc3ccccc3)n2)CC1	21	-2.74
CC(=O)NCCCS(=O)(=O)c1ccccc1F	-2	0.33
C[C@@H](CNc1nc(-c2ccccc2)nc2nc(-c3ccc(Cl)cc3)oc12)N1CCCCC1	79	-10.9
C=C(C)C[C@H](C)C(=O)N(Cc1ncc[nH]1)c1cncc(C)c1	-4	0.64
Cc1nnc(-c2ccc(C(F)(F)F)cc2CO)s1	-6	0.95
Cc1nc(NC(=O)c2cnn(CC(C)C)c2)n[nH]1	8	-0.87
COc1ccc(-c2ccc(N3CCN(C(=O)CN(Cc4ccc(F)cc4)C(=O)C(C)C)CC3)nn2)cc1OC	-11	0.99
CN(CC(=O)N(C)C)Cc1nc(-c2cccs2)no1	-18	1.52
COC[C@]1(O)CCOC2(CCN(Cc3cccc(F)c3F)CC2)C1	-12	1.73
O=C(c1nn(Cc2ccc(F)cc2)c2c1COCC2)N1CCC(Cc2ccccc2)CC1	-12	1.54
O=S(=O)(Nc1ccc2sncc2c1)c1cccs1	-2	0.19
CN(C)C(=O)c1nc2ccc(Cl)cn2c1CN1CCC[C@H](O)C1	-18	1.69
COc1ccccc1C(=O)N1CCN(c2nc(C)nc(C)c2Cc2cc(C)ccc2C)CC1	-4	0.62
Cc1cccc(NC(=O)N2CCC(N3CCN(Cc4ccccc4)C(=O)C3=O)CC2)c1C	-16	1.43
CCN1CCN(C(=O)c2n[nH]c3c2CN(C(=O)c2cccc(C)c2)CC3)CC1	-10	1.4
O=C(Nc1ncc(C2CCOCC2)s1)C1CN(C2CCCCC2)C1	-5	0.49
Cc1cnn(C)c1S(=O)(=O)N[C@H]1CCOC[C@@H]1OCC1CCC1	10	-1.32
Cc1nn(-c2ccc(C(C)C)cc2)c(C)c1[C@@H]1C=C[C@@H](NCc2ccccc2)C1	-3	0.51
